Results on two compounds are retold here after PubChem BioAssay (NCI).

Among the test systems are MOLT-4 leukemia; CCRF-CEM leukemia; HCC-2998 colon; HCT-15 colon; ACHN renal; SF-295 CNS; TK-10 renal.
Assay in all cases: inhibition of tumour cell growth, NCI panel, 48 h

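Method: 48-hour compound exposure of cells in 96-well plates, five concentrations, linear interpolation of endpoints. At the TGI there is no net growth.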 Not every entry of the source has a single result; some have several. They are shown here; other results are not. There may be further records. The tests behind the records often covered other concentration ranges, which the source does not state; a value can be the end of its range.

As for `CC(=O)c1ccc2c(c1)C(=O)c1sc(C(C)=O)cc1C2=O`, the TGI in the experiment on MOLT-4 leukemia is 2.79 µM and > 100 µM; with CCRF-CEM leukemia, 50 µM and 462 nM; in the experiment with HCC-2998 colon it was 42.8 µM and 3.31 µM.
For `CCC1CC(O)c2c(O)c3c(c(O)c2C1O)C(=O)c1cccc(O)c1C3=O` (configuration not stated) (tested in a mixture with another compound), the TGI with HCT-15 colon is 260 nM and 2.93 µM; in the experiment on ACHN renal it was 49 nM and 2.82 µM; in the experiment on SF-295 CNS it was 127 nM and 2.92 µM; in the experiment with TK-10 renal, 58.9 nM and 2.33 µM.
